Test results from the BET-seq Pho4 binding data (Le et al. 2018).
The list shows a part of the results. The energies were worked out here from pooled read counts, against the library average; single values are noisy.

biological target: T1, Pho4 (S. cerevisiae) (UniProt P07270); experiment: relative binding free energy (BET-seq); higher = weaker binding; details: reference: library average
T1 sequence: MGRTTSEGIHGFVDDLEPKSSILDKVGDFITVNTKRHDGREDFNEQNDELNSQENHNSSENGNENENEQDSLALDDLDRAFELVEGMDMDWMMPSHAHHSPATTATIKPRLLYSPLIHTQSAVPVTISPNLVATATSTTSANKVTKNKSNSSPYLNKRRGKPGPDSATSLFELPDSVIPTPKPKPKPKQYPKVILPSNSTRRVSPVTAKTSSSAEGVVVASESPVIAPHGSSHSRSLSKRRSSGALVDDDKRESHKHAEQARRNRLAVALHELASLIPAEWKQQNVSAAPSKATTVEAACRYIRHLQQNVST

Sequence | relative binding free energy
GTGTTCACGTGTTAAA | 0.32 kcal/mol
CTGATCACGTGGTGGA | 0.17 kcal/mol
GGGGTCACGTGAAACG | 0.37 kcal/mol
GTAGACACGTGTTTTT | 0.01 kcal/mol
GCGGGCACGTGGATTT | -0.09 kcal/mol
TGAGGCACGTGTTTGC | -0.29 kcal/mol
TAATGCACGTGTTCTT | -0.01 kcal/mol
TACCGCACGTGGGTGT | -0.16 kcal/mol
TAGGACACGTGGTTTA | -0.04 kcal/mol
GAGTGCACGTGCGGTT | -0.05 kcal/mol
TCTGGCACGTGAGAGA | 0.18 kcal/mol
GTGTTCACGTGAGTCA | 0.45 kcal/mol
GTGCTCACGTGGGGTC | 0.08 kcal/mol
TCCATCACGTGTTTGT | 0.09 kcal/mol
GGGCACACGTGCGTGT | -0.14 kcal/mol
TTCGACACGTGGTTAG | 0.01 kcal/mol
TGTAACACGTGTATTA | -0.03 kcal/mol
AAGGTCACGTGCGTAT | 0.02 kcal/mol
TGCTACACGTGCTTGT | 0.06 kcal/mol
TGGTTCACGTGGTGAT | 0.2 kcal/mol
GGGGTCACGTGTCTTG | 0.08 kcal/mol
ATTCGCACGTGAAGGG | 0.24 kcal/mol
GTGGGCACGTGTAGTC | -0.08 kcal/mol
TTTGTCACGTGATTTT | 0.41 kcal/mol
TTATGCACGTGACATG | 0.11 kcal/mol
GGTAGCACGTGGGGAT | -0.11 kcal/mol

Sequence | relative binding free energy
TGGCACACGTGGTGGG | -0.01 kcal/mol
TGATGCACGTGCGGTT | -0.07 kcal/mol
CACAGCACGTGGGGGT | -0.34 kcal/mol
CATTTCACGTGGAGTT | 0.18 kcal/mol
TGTTGCACGTGTAATG | 0.16 kcal/mol
TTATGCACGTGGTAAG | -0.14 kcal/mol
ATGAGCACGTGTTAGA | 0 kcal/mol
GCTAGCACGTGGTTGT | 0.02 kcal/mol
ATCGGCACGTGGGCTT | -0.17 kcal/mol
AGTAACACGTGTTAGG | -0.02 kcal/mol
ATAGGCACGTGAGGGG | 0.13 kcal/mol
GTGGTCACGTGACTAT | 0.15 kcal/mol
GGAGTCACGTGATATC | 0.5 kcal/mol
TCTGTCACGTGGTTAG | 0 kcal/mol
AAGGGCACGTGTAATG | 0.01 kcal/mol
GGGAGCACGTGAGCAG | 0.12 kcal/mol
GGAGTCACGTGTTGGG | 0.21 kcal/mol
AATAGCACGTGGTATT | -0.22 kcal/mol
ATTTGCACGTGCCTGG | -0.13 kcal/mol
GCGCGCACGTGGGCGG | -0.39 kcal/mol
AAGTGCACGTGTTTGG | -0.05 kcal/mol
TTTTTCACGTGTGGAT | 0.39 kcal/mol
GGTGACACGTGAGGAG | 0.22 kcal/mol
GGACTCACGTGGGTTT | 0.3 kcal/mol
CCCGGCACGTGGTGGT | -0.22 kcal/mol
GCTTGCACGTGGCTGG | -0.15 kcal/mol

Sequence | relative binding free energy
GGCTACACGTGCGTGT | 0.07 kcal/mol
TGTAACACGTGAGGCG | 0.11 kcal/mol
TTGTTCACGTGGTTTG | 0.28 kcal/mol
AGTTGCACGTGCGTCT | -0.1 kcal/mol
GAATTCACGTGGTCAT | 0.48 kcal/mol
GTGTGCACGTGTCGGC | 0 kcal/mol
CTCGTCACGTGGGGTG | -0.03 kcal/mol
AGGGTCACGTGTAATT | 0.15 kcal/mol
GTTTTCACGTGTTAGC | 0.37 kcal/mol
AACGGCACGTGTATGA | 0.14 kcal/mol
TTATACACGTGTCTTG | 0.07 kcal/mol
TGTAGCACGTGAAGGA | 0.12 kcal/mol
TGTGGCACGTGATGCA | -0.04 kcal/mol
GAAAACACGTGGGTTT | 0.07 kcal/mol
GGGGACACGTGGGAAG | -0.04 kcal/mol
ATAGGCACGTGGGCCG | -0.29 kcal/mol
CTGTTCACGTGTGATA | 0.18 kcal/mol
ACTTTCACGTGTTGTG | 0.16 kcal/mol
TATGTCACGTGGCCTA | 0.08 kcal/mol
GGGATCACGTGGCATG | 0.17 kcal/mol
TATGGCACGTGATTAG | -0.08 kcal/mol
AGTGTCACGTGTCAAT | 0.24 kcal/mol
AATGTCACGTGTTATT | 0.16 kcal/mol
GGGGGCACGTGGGTCA | -0.18 kcal/mol
ATCGGCACGTGGATTA | -0.01 kcal/mol
ATTGCCACGTGTTTTT | -0.12 kcal/mol

Sequence | relative binding free energy
AAGTTCACGTGAAGGT | 0.29 kcal/mol
GGTTTCACGTGTTGGA | 0.33 kcal/mol
AGTAGCACGTGGTAAA | -0.05 kcal/mol
AAGGGCACGTGGGGTT | -0.23 kcal/mol
ATTGGCACGTGAGCAA | 0.18 kcal/mol
ATGGGCACGTGAAAAT | 0.17 kcal/mol
TGTTACACGTGCTGCG | -0.02 kcal/mol
TTCGTCACGTGTGTTC | 0.08 kcal/mol
AGGGTCACGTGATTGA | 0.2 kcal/mol
GTCCGCACGTGGGGTT | -0.13 kcal/mol
CATTTCACGTGTTTGA | 0.06 kcal/mol
TTGGGCACGTGGGAAC | -0.05 kcal/mol
GAGGGCACGTGTGGGG | 0.02 kcal/mol
TGATCCACGTGGAGGG | -0.02 kcal/mol
AAAGACACGTGTATGT | -0.02 kcal/mol
TGTTGCACGTGGATTC | 0.2 kcal/mol
TAGTACACGTGAGTTT | 0.4 kcal/mol
CTGTTCACGTGCGGTT | 0.3 kcal/mol
TTGTGCACGTGTTTAA | -0.02 kcal/mol
ATTGTCACGTGGTGGA | -0.01 kcal/mol
GCGGTCACGTGGTTTA | 0.03 kcal/mol
CGTATCACGTGGAGAT | 0.18 kcal/mol
TTTTCCACGTGTTTCT | 0.05 kcal/mol
TATCTCACGTGATGTA | 0.35 kcal/mol
ACTGGCACGTGATGGC | 0.02 kcal/mol
GGCGGCACGTGCGTCG | 0 kcal/mol

Sequence | relative binding free energy
TAGTTCACGTGAGTGC | 0.51 kcal/mol
AATTTCACGTGACAGG | 0.35 kcal/mol
GACGGCACGTGTGTCG | 0.02 kcal/mol
TTTGGCACGTGTCCTG | -0.2 kcal/mol
GGTCGCACGTGGGTCT | -0.08 kcal/mol
TGTATCACGTGATTAT | 0.17 kcal/mol
CGTAACACGTGTGTAG | 0.12 kcal/mol
TTTATCACGTGATTAT | 0.19 kcal/mol
TGCCTCACGTGCGGTG | 0.14 kcal/mol
GGTGACACGTGGGAGT | 0.07 kcal/mol
CGAGACACGTGGTTGG | -0.11 kcal/mol
GGGAGCACGTGCAAGG | -0.13 kcal/mol
TGAAGCACGTGGTTCT | -0.08 kcal/mol
ACTGTCACGTGGTGAA | 0.23 kcal/mol
TGAGACACGTGGAGTG | -0.07 kcal/mol
CTTCTCACGTGTTGGA | 0.27 kcal/mol
GTGGTCACGTGTGGAT | 0.29 kcal/mol
GTAGTCACGTGTTAAT | 0.18 kcal/mol
GATGCCACGTGAGTTT | 0.34 kcal/mol
GGGTGCACGTGTATCG | -0.03 kcal/mol
AGTAACACGTGGGGGC | -0.16 kcal/mol
TTAGTCACGTGTAGCT | 0.1 kcal/mol
GCTGTCACGTGGTGCT | 0.07 kcal/mol
TTATACACGTGTAGGG | -0.01 kcal/mol
GTATTCACGTGCTTTT | 0.21 kcal/mol
TGGTTCACGTGTGGTT | 0.4 kcal/mol

Sequence | relative binding free energy
TTGTTCACGTGTTTGG | 0.37 kcal/mol
TGATACACGTGCGGAG | 0.1 kcal/mol
TTTGTCACGTGTAGCG | 0.16 kcal/mol
AGGATCACGTGTTTTA | 0.18 kcal/mol
CATGTCACGTGGGGCG | 0.04 kcal/mol
TATGTCACGTGTGACT | 0.1 kcal/mol
TAATGCACGTGAATGT | 0.19 kcal/mol
GGGAACACGTGTTGCG | 0.09 kcal/mol
TGGGTCACGTGATCCG | 0.17 kcal/mol
GAATGCACGTGTGAAT | 0.27 kcal/mol
GTCTGCACGTGGTTCA | 0.07 kcal/mol
TATGTCACGTGTGCTG | 0.16 kcal/mol
AGAATCACGTGTTATT | 0.1 kcal/mol
CTGGTCACGTGGGTCG | -0.02 kcal/mol
GTTGGCACGTGGAGTT | 0.01 kcal/mol
GTTTTCACGTGCTAAT | 0.24 kcal/mol
AATTTCACGTGGTCTT | 0.26 kcal/mol
TATGTCACGTGCTGAG | -0.01 kcal/mol
TTCTTCACGTGTCTAT | 0.29 kcal/mol
AACAACACGTGGGGTG | -0.1 kcal/mol
TGGCTCACGTGGTATA | 0.27 kcal/mol
TCGGCCACGTGGGGGT | -0.28 kcal/mol
ATGTGCACGTGTGCAG | -0.02 kcal/mol
TCGAGCACGTGAGTTG | 0.15 kcal/mol
GAGTCCACGTGTTTTG | 0.22 kcal/mol
GTGTCCACGTGGGTGC | -0.17 kcal/mol

Sequence | relative binding free energy
CGAGGCACGTGAAGGT | 0.2 kcal/mol
GATTGCACGTGTGCTG | 0.18 kcal/mol
TATGGCACGTGGGGAA | -0.15 kcal/mol
TTTGTCACGTGAAGGG | 0.24 kcal/mol
TGTTACACGTGTATTC | -0.03 kcal/mol
GGTGACACGTGGCTAG | 0.01 kcal/mol
GGAGGCACGTGGAAGA | -0.01 kcal/mol
CCTTTCACGTGATGTT | 0.18 kcal/mol
GCTGGCACGTGCGGGA | -0.24 kcal/mol
GGTAACACGTGTTTTG | 0 kcal/mol
GTGCTCACGTGAAGGA | 0.38 kcal/mol
CGGTGCACGTGCGGCT | -0.15 kcal/mol
ATACTCACGTGTATTG | 0.06 kcal/mol
GTGGGCACGTGATGGT | 0.16 kcal/mol
GCGGCCACGTGGGGTT | 0 kcal/mol
TATTCCACGTGGGGTA | -0.23 kcal/mol
TGGCACACGTGTGGCT | 0.15 kcal/mol
ACTGACACGTGTGTGG | 0.02 kcal/mol
ATTCGCACGTGGGGAA | -0.07 kcal/mol
GGCGGCACGTGGAGTT | 0.02 kcal/mol
ACTCGCACGTGGGGGT | -0.25 kcal/mol
CTTGGCACGTGAGTAG | 0.16 kcal/mol
CTAGACACGTGGGGGG | -0.1 kcal/mol
GGGGGCACGTGATGCA | -0.27 kcal/mol
TGTGTCACGTGGCAAG | -0.12 kcal/mol
TGTTACACGTGAGTAA | 0.34 kcal/mol

Sequence | relative binding free energy
TAACACACGTGGGGGT | -0.19 kcal/mol
TACGACACGTGATGGT | 0.11 kcal/mol
GTTTGCACGTGCGGGA | 0 kcal/mol
TGGTTCACGTGATTAG | 0.41 kcal/mol
AGTCGCACGTGGTTAA | -0.13 kcal/mol
GGGGACACGTGGTCCG | 0.01 kcal/mol
TGGTCCACGTGGTGTC | 0.04 kcal/mol
GTTATCACGTGCTTGG | 0.21 kcal/mol
TCAGGCACGTGCTTTG | -0.09 kcal/mol
GTTTTCACGTGCTGAG | 0.29 kcal/mol
TTGTTCACGTGATTCG | 0.33 kcal/mol
TTTGTCACGTGGGGGA | -0.03 kcal/mol
ATTAGCACGTGGTGTC | -0.25 kcal/mol
GGGGACACGTGGGTTA | -0.06 kcal/mol
TTTTTCACGTGACAGT | 0.32 kcal/mol
TTTAACACGTGTGCGT | -0.13 kcal/mol
AGATACACGTGTTGTA | 0.07 kcal/mol
AGAGACACGTGGTTGT | -0.12 kcal/mol
GGTTTCACGTGAAAGA | 0.47 kcal/mol
ATGTGCACGTGGAACG | 0.11 kcal/mol
GATCGCACGTGTAAGG | 0.09 kcal/mol
GGTAACACGTGGAAGT | 0.11 kcal/mol
TCAGTCACGTGGTGGA | 0.06 kcal/mol
GGTGTCACGTGTGTCG | 0.16 kcal/mol
TGGTTCACGTGAGTAC | 0.31 kcal/mol
GCTAGCACGTGCTGGG | -0.07 kcal/mol

Sequence | relative binding free energy
GCGGGCACGTGGACTG | -0.05 kcal/mol
TCTGACACGTGAGTGG | 0.3 kcal/mol
TGAAACACGTGAGGAG | 0.3 kcal/mol
GGAAGCACGTGATGGC | 0.11 kcal/mol
CTTAGCACGTGCGTTT | 0.06 kcal/mol
TAGTGCACGTGGCGTG | -0.18 kcal/mol
TTAAACACGTGAAGTT | 0.34 kcal/mol
GGTTGCACGTGGTCTA | -0.1 kcal/mol
AGTCGCACGTGGGTTT | -0.13 kcal/mol
TTTCTCACGTGGTGCA | 0.18 kcal/mol
TAGTTCACGTGGCAGA | 0.46 kcal/mol
CGGGTCACGTGGCGTT | 0.1 kcal/mol
TTGTTCACGTGTTTTT | 0.36 kcal/mol
TCGGTCACGTGAGTGA | 0.19 kcal/mol
GGTAGCACGTGATAAG | 0.04 kcal/mol
ATGTGCACGTGTGAGA | 0.15 kcal/mol
TTATTCACGTGAGCGT | 0.31 kcal/mol
TGTGGCACGTGACGTT | 0.11 kcal/mol
TGGTCCACGTGGGAAT | -0.07 kcal/mol
TGTTGCACGTGTCATG | 0.05 kcal/mol
CGGTGCACGTGTTGAA | 0 kcal/mol
TGAGCCACGTGGAGGT | -0.06 kcal/mol
